The full ranking holds about 2,700 sequences; the median of “arbitrary fluorescence units” is about 4,100, and the highest 2% start at about 54,000. This is one part of the list.

The test has as its target T1, ETS1 (UniProt P14921).
T1 sequence: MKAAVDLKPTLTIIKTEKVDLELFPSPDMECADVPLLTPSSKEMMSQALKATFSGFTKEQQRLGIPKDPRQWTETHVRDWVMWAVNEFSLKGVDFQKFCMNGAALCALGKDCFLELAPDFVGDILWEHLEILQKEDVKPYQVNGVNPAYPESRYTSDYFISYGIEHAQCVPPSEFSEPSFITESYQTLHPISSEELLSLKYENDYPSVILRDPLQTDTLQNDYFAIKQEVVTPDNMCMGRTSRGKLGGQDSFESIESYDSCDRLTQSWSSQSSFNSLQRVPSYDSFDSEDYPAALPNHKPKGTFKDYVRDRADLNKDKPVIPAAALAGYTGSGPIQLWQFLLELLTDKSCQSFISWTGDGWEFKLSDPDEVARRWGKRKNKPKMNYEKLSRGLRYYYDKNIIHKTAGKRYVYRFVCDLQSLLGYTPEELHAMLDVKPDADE
As to the kind of experiment: ETS1 binding intensity (PBM fluorescence) (arbitrary fluorescence units); higher = stronger binding. Conditions: ETS1 concentration 10 nM. The method, then: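 gcPBM on wild-type 36-bp genomic probes with two neighbouring ETS1 sites (4-24 bp apart). Recombinant human ETS1 (10 nM) was detected with anti-ETS1 antibody fluorescence. Values are medians over 3 replicate spots. The probes sit in constant array flanks that are not printed.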
GATCCACCTCCACTTCCTGTTTCCGCAGCCGCCCTA gave an ETS1 binding intensity of 28300.

As for ATTGAAGCTTCCTGGGAAGAGAACATCCTGAAGATT, the ETS1 binding intensity worked out at 4500.

Take CTTGTCGCTTTTCCTGGCTCGTTTCCGCTCTGCCTG: the ETS1 binding intensity came to 6490.

Take ACATTTCCCAGCGGGCCGCGCGCCCTCCTTCCGGCA: the ETS1 binding intensity is 790.

As to CTTCTGTTCGGACGGAAAAAGGAAACGGTAGGCAGT, the ETS1 binding intensity came out at 271.

In turn, GGGCCAGGAAACTTTGTGTTCTTTGCAGGAAGCAGA came in with an ETS1 binding intensity of 234.

In the case of CACAGATCTTCCTGTCTGGAGCATTTCCGGCCCTTC, the ETS1 binding intensity was determined as 17300.

TTAAAATAACATTTCCTACTCTTCCTGCTTCTGGTC gave an ETS1 binding intensity of 1510.

The sequence CCCTATCCGGGCCTGGGAGGCCTCCTACGGAAGAAA came in with an ETS1 binding intensity of 2290.

TGTGCACATCCTCCAGAAGATGCACATCCTCCAGAA registered an ETS1 binding intensity of 2450.

TGGCAGGAAGACTGCCTCAGCATCTATTTCCTTGCA yielded an ETS1 binding intensity of 278.

ATCTCACTTCCCTTCCTGCCTTCCTTGGAGCTTCTC: the ETS1 binding intensity came to 8740.

In turn, CTTGCAGGAAACTACAACTCCCGAAGGGGAAATGGG registered an ETS1 binding intensity of 687.

Take AGGACTTCCCAGACCTCTCCACAATGCAGGAAGTAA: the ETS1 binding intensity amounted to 1280.

For the sequence AGCCACATAGGAAGCAGGTGGTGTTTCCTGGGCAGG, the ETS1 binding intensity is 504.

In the case of TCACATCCCCAGGTGAGTGGCAACCACCGGAAGTGG, the ETS1 binding intensity amounted to 9920.

TGGAGGAAGTTGACTCAGATTGCTGCACTTCCTAGA came in with an ETS1 binding intensity of 777.

With GGGAAAGACCGCTTCCGGTGCTTCCGTCGCTCCTTG, the ETS1 binding intensity is 38300.

GAGAGCCTGCTGTTTCCGCGGATGCTTTACCTTGCC came in with an ETS1 binding intensity of 420.

For the sequence GTCGCGGAAGCCGGCGCCTGGCCACCCGGAAGCCAC, the ETS1 binding intensity came to 823.

For the sequence AGAGCCAGGAAGCCTCCTGGAGGGCCGGAAACTTTC, the ETS1 binding intensity is 563.

Sequence ATCTGAGGAGGCAGGAAGGCGGAAAGCGAAGGGAGT yielded an ETS1 binding intensity of 326.

Sequence TGCACAAGGAAATGCCATAAAGAAACATCCCGTCCT gave an ETS1 binding intensity of 373.

GGAGATAATTTCCGGGTCCCGGCAGGAAAGGGTCAG came in with an ETS1 binding intensity of 25700.

For the sequence CCGTGCGGAAGAAAAGGGTTGGCTATTTCCGTGGCC, the ETS1 binding intensity turned out to be 234.

GCCCACTTCCTGCGGATGTGGATGCTGGCAACACCC came in with an ETS1 binding intensity of 37800.

The sequence GCTGGGTCACCAGGAAGAAAAGGAAATGGATTTGGT returned an ETS1 binding intensity of 248.

As for ACACAAATTTAGGAAATGTTGCTTCCTTTCCCACCA, the ETS1 binding intensity turned out to be 387.

As for CTGGAGGGGCAAGGAAACACAGGAAATTGCAGTTTC, the ETS1 binding intensity worked out at 2070.

As for CTCACATCCTGTGTTTGAAAGAAAAATCATCCTGCC, the ETS1 binding intensity was 35100.

As for AGGCGAGAGGAGGAAGCGGGCGGAAGCCGGTGGCTC, the ETS1 binding intensity turned out to be 781.

In the case of CAACCTCAGCCGGAAACTACATTTCCCAGCAGGTCG, the ETS1 binding intensity amounted to 3970.

With GGTTAGCTTCCTCATAAGGCATCGTTTCCGTGGGTG, the ETS1 binding intensity was found to be 900.

As for TGGAGACTTCCTCCCGCTCGCAAAGAGGAAACCACT, the ETS1 binding intensity turned out to be 12200.

Take TCCTCGGAAGCCGGCTTCGCCACGTAACTTCCCGGG: the ETS1 binding intensity turned out to be 229.

GCGAGGGTGGCTGCTTCCTTCCTGTCCAGAAAACAC returned an ETS1 binding intensity of 5000.

CATTTCCTGGAATTCTCTATAACTCTTCCTGCACAG yielded an ETS1 binding intensity of 27100.

In turn, CAGCAGGCCTTCCTGCAGGCCACTTCCCTTCAGAGA yielded an ETS1 binding intensity of 2040.

On to AGTGACCCCACAAGTTCCCTTCCTGAAGGAAGTATT, for which the ETS1 binding intensity was 204.

For GTTATGATAACGGAACTACAGTTCCTCCAGGATGGA, the ETS1 binding intensity is 195.

CGGGTCGGAAATGGTGGTCACGAGCGCTTCCGGGTC: the ETS1 binding intensity came out at 3270.

In turn, GACTCTCCAGGAAGAAGGGTAATTTCCTGCCTCCTT showed an ETS1 binding intensity of 3110.

In turn, CCGGGGTCTCCTTCCTGACCACTTCCTGCCTTTATT came in with an ETS1 binding intensity of 11500.

Regarding CTTGCTTCCGGTGGCTTCACTCACATGCTTCCTCTG, the ETS1 binding intensity worked out at 39800.

AGGGCAGACAGGATATGGTGCGAGGAAGTCTGGGGT returned an ETS1 binding intensity of 3830.

The sequence CAGTTCTGGGCTTCCCGGCTGAGGAAATGCTGTCAC showed an ETS1 binding intensity of 243.

In the case of GCGCTGAGCCTTCCGTGCGACCGGATTGGCTGTCGC, the ETS1 binding intensity was 205.

Take CGTGAGCGGAAGCGGCGCCATTCGTCTTCCGAGCGC: the ETS1 binding intensity was 6670.

As to TTTCTGGCAGGAAGCCACTGGGCGGAAGTTTGCTGA, the ETS1 binding intensity amounted to 2840.

For AGGAGGAGGAAGTGGAGGGTAAGTGCTTCCGGGTCC, the ETS1 binding intensity amounted to 3550.

In turn, CAGCACGACTTCCTGGAGCGGGCCGGAAGTGACAAC came in with an ETS1 binding intensity of 21000.

Regarding CTGGCCCTGGCCCTTCCTGCTTCCTGTGACAGTAGC, the ETS1 binding intensity is 8310.

As to TGAAACAGGAAGTCAGCTTCACAGCAGGAAGCAGAC, the ETS1 binding intensity was 16400.

Take AGTGACAGGAGGAAGTAGGAGAGGAAATGATGCATG: the ETS1 binding intensity amounted to 1350.

As for ACCCGGAAGCGCTTCACCCAGCCTGAGCGGAAGAAC, the ETS1 binding intensity was determined as 5640.

ACCCCGGAAGCACATCCTTCATCCTCTACCTTCCTT yielded an ETS1 binding intensity of 15700.

CGGGACAGGAAGTGTGGACAGGCTCCTTCCTGTTTG: the ETS1 binding intensity was found to be 15000.

As to GGACAGGAAACCTCTCTGAGTCTCGATTTCCTCCGT, the ETS1 binding intensity is 2730.

Regarding CAAAAGATTGAAGGAAGTGAGGAAGTCAGCTGGCTT, the ETS1 binding intensity came to 545.

Consider CAGCTCCGGAAATGCTCATAGGCTCCGGAAATGCTC, for which the ETS1 binding intensity came out at 13000.

Sequence CCGCCCCTTCCGCCGCGGGCGGCAGCTTCCGGCTCG displayed an ETS1 binding intensity of 11600.

As for CGTCCCACATCCGCCGACACGCCCCTTCCGGCCTAA, the ETS1 binding intensity worked out at 20000.

CCGAAGCGCTTCCTGTGCCAGGTTTCCGGCTCCGGG came in with an ETS1 binding intensity of 20100.

GCCTATTGAAGGAAGCTCAGATTTCCTGGCCTGGCA had an ETS1 binding intensity of 870.

AGGGCTGTGGGCGGAAGTGGGGAAGTTTGTGGCGTG: the ETS1 binding intensity came out at 8600.

In turn, CATCACCCCATCCTGAGCCCAGCCGGATGTGGCTAA registered an ETS1 binding intensity of 2780.

ACACTCCCCTGCTTCCTTTACTTCCTGGAGCCCCAG displayed an ETS1 binding intensity of 4950.

Regarding CCCGGAGTTCCGCGCGGCGCCAGCCCTTCCGCCACG, the ETS1 binding intensity stood at 375.

GCGCCTGATTCACTTCCCTCTTCCGCTCTGAGGCGT had an ETS1 binding intensity of 4680.

AGCGGGCCGCTGCTTCCTCAGGAAGGGTGGAGGCGG registered an ETS1 binding intensity of 244.

Sequence CAGGCGGATGCTCTGATTCACCAAAAGCTTCCTGAA showed an ETS1 binding intensity of 553.

AAAGCCGGAAGTGCGTCACACCCGCCTTCCGGAGCT displayed an ETS1 binding intensity of 24900.

In turn, CGGCTCATTTCCGCCCGACCCAGCGGAAAGCTAGGG showed an ETS1 binding intensity of 22400.

Turning to GAAAGCGGAGAACGGAAGTCGGATGTTGGACCGCTG, the ETS1 binding intensity is 9280.

TATCTCCTTCCTGTGTAGCATTGACTTTCCTGTCAG showed an ETS1 binding intensity of 14100.

In turn, ATTCTGGCAGGAAGTAACTTGGCAGGAAGTAACTTG returned an ETS1 binding intensity of 10600.

On to CGAACCGGAACCGCCTTCACAGCACCGGAAGAGTCG, for which the ETS1 binding intensity turned out to be 3640.

The sequence TCGGCCGGAAGTGTCTCCGGCCTTTTCGGAAGTCAC gave an ETS1 binding intensity of 18000.

ACTACAGGAAGAGAGAGAAGCATCTGCTTCCTCGAG registered an ETS1 binding intensity of 888.

Sequence AACAGCCAGTTCCGGCGGCCGCACTTCCGATTGGCA gave an ETS1 binding intensity of 11800.

These data come from the supplement of paper PMC10681739.
